# Data published in PubChem BioAssay (NCATS).
# Where “and” joins values, the source holds several entries; their conditions need not be identical. Equal values may be shown once. Inconclusive means that the source gave no clear call. Such entries were picked first, then a sample of the others. For part of these data: Potencies of inconclusive entries are doubtful fits and often do not repeat. Calls of active or inactive are those of the source. Unless noted, the call rests on the fitted dose curve; in most records, active means well fitted curve in the direction sought with a large enough effect; inconclusive means small, poorly fitted or top-dose-only effect, or another doubt; inactive means no such curve, though single readings can be large; an effect the other way counts as inactive or inconclusive.
# Assays:
# [1] = P-glycoprotein substrates identified in KB-8-5-11 adenocarcinoma cell line, qHTS therapeutic library screen (AID 1346987); further: nearly all actives have a fitted effect of over 65% in size
# Method in brief: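 Compounds are pinned in dose-response onto KB-8-5-11 cells (500 cells/well, colchicine-free medium) and left 72 h at 37 degree C. CellTiter-Glo luminescence then yields AC50 values.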
# [2] = system: Zika virus NS2B-NS3 protease (unlinked complex); assay: Primary screen GU Rhodamine qHTS for Zika virus inhibitors: Unlinked NS2B-NS3 protease assay (AID 1347159); further: nearly all actives have a fitted effect of over 60% in size; further: potency means the concentration at half of the fitted maximal effect; on activity change, negative = inhibition: on the % scale 0 is the no-effect control and ±100 the full control effect
# Method in brief: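 Percent inhibition came from the 15-min rise in Rhodamine110 fluorescence (1.5 microM substrate, ~15% conversion), normalized to no-inhibitor and no-enzyme wells and Hill-fitted. Unlinked protease, 25 nM, pH 8.0 Tris buffer; compounds up to 114 microM, 15-min preincubation.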
# [3] = system: Zika virus NS2B-NS3 protease (linked construct); assay: Primary screen NINDS Rhodamine qHTS for Zika virus inhibitors (AID 1347160); details: activity change, negative = inhibition: at 57.1 µM (top of the series) unless noted; further: potency means the concentration at half of the fitted maximal effect; nearly all actives have a fitted effect of over 55% in size
# Method in brief: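 Rhodamine110-peptide cleavage (1.5 µM substrate) by 25 nM linked NS2B-NS3 enzyme at pH 8.0 (Tris, Tween 20), after 15 min RT preincubation with compounds; 15-min fluorescence change normalized to controls and Hill-fitted.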
# [4] = Primary qHTS for inhibitors of nuclear receptor binding SET domain protein 2 (NSD2) in an isogenic RCH-ACV NSD2 p.E1099K mutant (9B) (AID 1645876); further: nearly all actives have a fitted effect of over 70% in size; further: potency means the concentration at half of the fitted maximal effect
# [5] = Primary qHTS for inhibitors of nuclear receptor binding SET domain protein 2 (NSD2) in an RCH-ACV wild type WT cells (2C) (AID 1645877); details: activity change, negative = cell killing: at 44.9 µM (top of the series) unless noted; further: nearly all actives have a fitted effect of over 70% in size; further: potency means the concentration at half of the fitted maximal effect; on activity change, negative = cell killing: on the % scale 0 is the no-effect control and ±100 the full control effect
# HEK293 = assay: Cytotoxic Profiling of Annotated Libraries Using Quantitative High-Throughput Screening (AID 1296008); details: Five cell lines viability, CellTiter-Glo ATP luminescence, 48-72 h; max response: stronger effect = lower value; further: nearly all actives have a fitted effect of over 60% in size; further: potency means the concentration at half of the fitted maximal effect; on max response: on the % scale 0 is the no-effect control and ±100 the full control effect
# Method in brief: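 Compounds were pin-transferred onto cells and incubated 48 or 72 hr at 37 degree Celsius, 95% humidity. CellTiter-Glo was added, plates sat 10 min at room temperature, then ATP-coupled luminescence was imaged as the viability read-out.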
# CAOV3 = assay: Primary qHTS to identify gynecologic anti-cancer compounds using libraries of approved drugs and bioactive compounds (AID 1345084); details: Gynecologic cancer cell panel viability, ATPlite luminescence, 48 h; activity change, negative = cytotoxicity: at 57.5 µM (top of the series); further: nearly all actives have a fitted effect of over 55% in size; further: potency means the concentration at half of the fitted maximal effect; on activity change, negative = cytotoxicity: on the % scale 0 is the no-effect control and ±100 the full control effect
# Method in brief: (§1)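 Cell viability after 48 h drug treatment, ATPlite luminescence readout; five doses.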
# SKOV3 = assay: as above; details: Gynecologic cancer cell panel viability, ATPlite luminescence, 48 h; series mostly up to 57.5 µM
# Method in brief: as §1
# [6] = molecular target: Cytochrome P450 2D6 (Homo sapiens) (UniProt P10635); assay: Cytochrome P450 family 2 subfamily D member 6 (CYP2D6) small molecule antagonists: luciferase biochemical (cell-free) qHTS assay (AID 1645840; active means well fitted curve in the direction sought with a large enough effect in the repeat runs; inconclusive means weak or mixed curves; inactive means no such curve, though single readings can be large; an effect the other way counts as inactive or inconclusive; further: potency means the concentration at half of the fitted maximal effect; nearly all actives have a fitted effect of over 55% in size)
# Chain of UniProt P10635 (P10635 whole entry, looked up): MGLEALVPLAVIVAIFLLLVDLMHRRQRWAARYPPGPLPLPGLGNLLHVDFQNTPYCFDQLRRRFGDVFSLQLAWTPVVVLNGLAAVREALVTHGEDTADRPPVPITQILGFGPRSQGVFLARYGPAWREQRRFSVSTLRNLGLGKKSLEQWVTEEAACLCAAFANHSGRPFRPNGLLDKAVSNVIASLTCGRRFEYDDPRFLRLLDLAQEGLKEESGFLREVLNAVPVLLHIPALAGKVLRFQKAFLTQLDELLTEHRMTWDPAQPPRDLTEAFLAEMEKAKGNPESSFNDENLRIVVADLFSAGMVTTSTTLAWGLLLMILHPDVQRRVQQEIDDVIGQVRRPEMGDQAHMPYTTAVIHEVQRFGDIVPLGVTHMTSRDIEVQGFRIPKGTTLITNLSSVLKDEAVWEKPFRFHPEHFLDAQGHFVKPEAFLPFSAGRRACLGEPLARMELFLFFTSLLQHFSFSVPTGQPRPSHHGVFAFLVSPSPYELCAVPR
# Method in brief: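 P450-Glo CYP2D6 system: proluciferin substrate converted by enzyme to luciferin, read by luminescence proportional to activity. Enzyme-substrate mix with compound 10 min at room temperature, then NADPH regeneration 1 h before detection reagent.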
# [7] = Primary fluorescence-based thiol-reactive (MSTI) qHTS assay for identification of artifact compounds. (AID 1845221);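 further: potency means the concentration at half of the fitted maximal effect; thiol-reactive compounds lower the probe fluorescence signal; nearly all actives have a fitted effect of over 65% in size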
# Method in brief: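 Probe: MSTI 4 uM, PBS pH 7.4, 2% DMSO. Incubation 1 h, RT, light-protected. Readout fluorescence 525/598 nm.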
# [8] = Primary redox qHTS assay for identification of artifact compounds. (AID 1845223); details: Amplex Red/HRP redox cycling with DTT, fluorescence; redox activity (% of DA3003): at 53.8 µM (top of the series); further: potency means the concentration at half of the fitted maximal effect;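 on redox activity (% of DA3003): 0% = DMSO and 100% = reference compound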
# Method in brief: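 Redox-cycling detection via DTT (250 uM final) oxidation coupled to Amplex Red (25 uM)/HRP (250 mU/mL) in HBSS. 15 min preincubation plus 30 min after DTT, room temperature. Ex/Em 525/598 nm; 4-parameter Hill fit against DMSO and 10 uM DA3003.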
# [9] = molecular target: Phospholipid hydroperoxide glutathione peroxidase GPX4 (Homo sapiens) (UniProt P36969); assay: Primary qHTS Assay for Inhibitors of Recombinant Selenoprotein Glutathione Peroxidase 4 (GPX4) (AID 1845192); further: on the % scale 0 is the no-effect control and ±100 the full control effect; nearly all actives have a fitted effect of over 65% in size
# Chain of UniProt P36969 (P36969 whole entry, looked up): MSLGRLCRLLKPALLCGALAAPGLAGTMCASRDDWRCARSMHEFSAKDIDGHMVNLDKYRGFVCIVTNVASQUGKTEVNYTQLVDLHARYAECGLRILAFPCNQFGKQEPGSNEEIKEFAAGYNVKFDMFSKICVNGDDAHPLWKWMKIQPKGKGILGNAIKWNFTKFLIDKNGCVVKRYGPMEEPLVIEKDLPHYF
# Method in brief: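 qHTS, GR-coupled: GPX4 200 nM + cpd 30 min RT → GSH 1 mM, NADPH 0.5 mM, GR 100 nM → CHP 0.5 mM start; fluor 340/450 at t0 and t15 min; no-enzyme wells as control.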
# [10] = molecular target: Cytochrome P450 2C9 (Homo sapiens) (UniProt P11712); assay: Cytochrome P450 family 2 subfamily C member 9 (CYP2C9) small molecule antagonists: luciferase biochemical (cell-free) qHTS assay (AID 1645842; active means well fitted curve in the direction sought with a large enough effect in the repeat runs; inconclusive means weak or mixed curves; inactive means no such curve, though single readings can be large; an effect the other way counts as inactive or inconclusive; further: potency means the concentration at half of the fitted maximal effect; nearly all actives have a fitted effect of over 55% in size)
# Chain of UniProt P11712 (P11712 whole entry, looked up): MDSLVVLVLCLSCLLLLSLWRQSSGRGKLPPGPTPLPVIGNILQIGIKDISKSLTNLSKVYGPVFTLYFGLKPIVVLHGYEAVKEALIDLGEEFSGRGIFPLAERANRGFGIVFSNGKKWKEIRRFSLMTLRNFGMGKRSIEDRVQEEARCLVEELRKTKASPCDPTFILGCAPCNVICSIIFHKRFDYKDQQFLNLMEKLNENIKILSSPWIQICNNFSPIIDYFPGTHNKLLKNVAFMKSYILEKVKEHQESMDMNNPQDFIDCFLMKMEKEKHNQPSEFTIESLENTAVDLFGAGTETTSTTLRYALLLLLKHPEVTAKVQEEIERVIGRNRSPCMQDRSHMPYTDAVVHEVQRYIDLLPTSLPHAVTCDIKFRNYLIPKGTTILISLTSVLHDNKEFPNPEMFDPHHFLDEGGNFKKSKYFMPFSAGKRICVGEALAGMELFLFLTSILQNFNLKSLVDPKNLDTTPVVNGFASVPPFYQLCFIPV
# Method in brief: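 P450-Glo CYP2C9 system: proluciferin substrate with enzyme in mix containing 0.4% BSA, 10 min at room temperature, then NADPH regeneration solution added and incubated 1 h at 37C. Detection reagent stopped reaction; luminescence read after 20 min as RLU.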
# Tags describe the fitted curve by direction and shape.
smiles,measurement,setting,value
COc1cc(C[C@H]2COC(=O)[C@@H]2Cc2ccc(O)c(OC)c2)ccc1O,Potency,[1],inactive
same,Potency,[2],active: 35.5 µM
same,Potency,[3],"inconclusive: 10 µM [inhibitor, single point]"
same,Potency,[4],inactive
same,Potency,[5],inactive
same,outcome,HEK293,inactive
same,Potency,CAOV3,inactive
COCCN1CCC(C(=O)NO)(S(=O)(=O)c2ccc(Oc3ccc(OC(F)(F)F)cc3)cc2)CC1,Potency,[4],"inconclusive: 29 µM [inhibitor, single point]"
same,Potency,[5],"inconclusive: 18.3 µM [inhibitor, single point]"
same,max response,HEK293,inactive: -3.44%
same,Potency,CAOV3,inactive
same,Potency,SKOV3,"inconclusive: 10 µM [rising, partial curve]"
O=S1(=O)CCN(Cc2cc(NCC3CCOCC3)c3[nH]c(-c4ccccc4)cc3c2)CC1,Potency,[2],inactive
same,Potency,[6],active: 12 µM
same,Potency,[4],"inconclusive: 23 µM [inhibitor, single point]"
same,Potency,[7],active: 1.19 µM
same,Potency,[8],"inconclusive: 23.8 µM [activator, partial curve, poor fit]"
same,Potency,HEK293,"inconclusive: 29.1 µM [inhibitor, single point]"
same,Potency,CAOV3,inactive
COC1C2=C(COC2=O)C2(C)CCCC(C)(CO)C2C1OC(=O)c1ccccc1 (stereo unspecified),Potency,[4],"inconclusive: 14.2 µM [inhibitor, single point]"
same,Potency,[5],inactive
same,outcome,HEK293,inactive
same,Potency,CAOV3,inactive
COc1ccc(Oc2c(Cl)cnn(C3c4ccccc4-c4ccccc43)c2=O)cc1,Potency,[5],"inconclusive: 11.5 µM [inhibitor, partial curve, poor fit]"
same,Potency,[9],inactive
same,max response,HEK293,inactive: -2.77%
same,Potency,CAOV3,"inconclusive: 39.8 µM [cytotoxic, single point]"
CCOC(=O)c1ccnc(CNCC(=O)N(CC)CCN(C)C)c1,Potency,[4],"inactive and inconclusive: 833 nM [inhibitor, partial curve, poor fit]"
same,Potency,[8],inactive
same,outcome,HEK293,inactive
same,Potency,CAOV3,"inconclusive: 31.6 µM [rising, single point]"
COc1ccc(CCN(C)CCCOc2nsc(-c3ccccc3)n2)cc1OC,Potency,[10],"inconclusive: 15.1 µM [inhibitor, partial curve]"
same,Potency,[4],"inconclusive: 20.5 µM [inhibitor, single point]"
same,Potency,[5],"inconclusive: 23 µM [inhibitor, single point]"
same,Potency,HEK293,"inconclusive: 29.1 µM [inhibitor, single point]"
same,Potency,CAOV3,inactive
